Values marked as one replicate rest on one cluster of the flow cell; about a third of the high ones do not repeat.
Tested on: ATP
Experiment: switch fluorescence ratio, 500 uM ATP over buffer (Cy3 cluster intensity, sum of 5 cycles each) (fold (ratio)); higher = stronger signal-on switching upon ATP binding; sequences stand for … in TCGTCGGCAGCGTCAGATGTGTATAAGAGACAGTTTTTTTTTTTTTTTTTTTTTTTTT…TC
Conditions: aptamer strand: ATP DNA aptamer (quencher-CACCTGGGGGAGTATTGCGGAGGAAGG + anchor), 100 nM annealed; ATP concentration: 500 uM; one replicate
Summary of the method: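 Exposure to 500 uM ATP lasted 15 min at 22 °C before imaging, and a selection-buffer image was taken beforehand, for Cy3-labelled switching-strand clusters on a modified Illumina MiSeq flow-cell annealed to 100 nM quencher-labelled ATP aptamer. Five buffer/ATP cycles were run with NaOH stripping and re-annealing between them. The fluorescence ratio per cluster is summed target-cycle over summed buffer-cycle Cy3 intensity, averaged per switch-domain sequence. Clusters outside 100-1000 RFU were excluded.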

In the case of TCTGAGGGTG, the switch fluorescence ratio is reported as 0.997.

CCGCCATCT was tested, and the switch fluorescence ratio was 1.49.

CCTGTTCTTT was tested, and the switch fluorescence ratio was 0.988.

Work on GGGGAGCCGC yielded a switch fluorescence ratio of 1.07.

Sequence AGCCTAGTTG has a switch fluorescence ratio of 0.995.

AAAATCATCA gave a switch fluorescence ratio of 0.999.

Sequence CGCGAAAAGT has a switch fluorescence ratio of 0.963.

In the case of TTACTCGCCC, the switch fluorescence ratio is reported as 1.25.

CACTGGGCAG was tested, and the switch fluorescence ratio was 0.96.

CGTAATATTG showed a switch fluorescence ratio of 1.1.

ATTCTGTTGA was tested, and the switch fluorescence ratio was 1.02.

CCAGCTCTAA showed a switch fluorescence ratio of 1.08.

With CGGTATCGCC the switch fluorescence ratio was 1.

With TGATGGGAAT the switch fluorescence ratio was 1.01.

In the case of TCAATCTTTT, the switch fluorescence ratio is reported as 1.01.

CATGGATTAG showed a switch fluorescence ratio of 1.03.

Work on GCCCTGAATG yielded a switch fluorescence ratio of 0.981.

CTGCGATCGA showed a switch fluorescence ratio of 1.05.

TGGTGTCCGG showed a switch fluorescence ratio of 0.981.

TCGGCCGGAT showed a switch fluorescence ratio of 1.06.

Work on AAAATGTTAA yielded a switch fluorescence ratio of 1.02.

TCTGCATGG gave a switch fluorescence ratio of 1.14.

In the case of TTCTCGCGCG, the switch fluorescence ratio is reported as 0.981.

In the case of TGGACCCGG, the switch fluorescence ratio is reported as 1.07.

Sequence CAAGTCTTGG has a switch fluorescence ratio of 0.981.

Sequence ATCCAGCTAT has a switch fluorescence ratio of 1.16.

For TTTGGTCGAC, the switch fluorescence ratio was 0.996.

Sequence TTATCGTTT has a switch fluorescence ratio of 0.953.

Sequence GGTCTTTGTT has a switch fluorescence ratio of 0.948.

CATATTACTA gave a switch fluorescence ratio of 1.01.

TAGCTGTCGC gave a switch fluorescence ratio of 1.03.

With CCATGTAATC the switch fluorescence ratio was 1.36.

In the case of CAACAAGTAG, the switch fluorescence ratio is reported as 1.03.

GTGACCAAAT was tested, and the switch fluorescence ratio was 1.03.

GCGAAGAGTG gave a switch fluorescence ratio of 1.02.

For GCATTGGCTA, the switch fluorescence ratio was 1.04.

In the case of TGAAATGAGC, the switch fluorescence ratio is reported as 1.04.

TCATAAGTAG was tested, and the switch fluorescence ratio was 0.992.

In the case of AGGAGGCCCG, the switch fluorescence ratio is reported as 1.12.

With AACCGCGCCC the switch fluorescence ratio was 2.58.

GGTGACTCAG gave a switch fluorescence ratio of 1.01.

In the case of CACGATGCGG, the switch fluorescence ratio is reported as 0.996.

CTATTGCGGT showed a switch fluorescence ratio of 1.

CGCCACACTT gave a switch fluorescence ratio of 1.11.

GTCGTGGTAG was tested, and the switch fluorescence ratio was 1.04.

Sequence ACTGGATTAC has a switch fluorescence ratio of 1.19.

With CCCCGCAGCG the switch fluorescence ratio was 4.68.

For AGGCAGATCT, the switch fluorescence ratio was 0.989.

In the case of CAAAGCATC, the switch fluorescence ratio is reported as 1.43.

TGGCATATGT gave a switch fluorescence ratio of 1.

In the case of GACGATTCT, the switch fluorescence ratio is reported as 1.01.

For TCGGTCAAGT, the switch fluorescence ratio was 1.02.

For AATTTATCA, the switch fluorescence ratio was 1.02.

With TAGGCCTCTT the switch fluorescence ratio was 0.983.

ACCACCGTGT gave a switch fluorescence ratio of 1.04.

GGGTATCTAG gave a switch fluorescence ratio of 0.967.

Work on ATGCAGTGCA yielded a switch fluorescence ratio of 1.04.

Sequence GTTAACGCGC has a switch fluorescence ratio of 1.02.

Work on GATTGTAGC yielded a switch fluorescence ratio of 0.955.

With TTGGATATCA the switch fluorescence ratio was 1.04.

For ACGGCTTTTA, the switch fluorescence ratio was 0.955.

TCGATGTCTA was tested, and the switch fluorescence ratio was 1.01.

In the case of ATTCGAGGTG, the switch fluorescence ratio is reported as 0.967.

GGTTGGCGGT showed a switch fluorescence ratio of 0.997.

Sequence GATCGGCCGT has a switch fluorescence ratio of 1.02.

In the case of CTGGTATCAC, the switch fluorescence ratio is reported as 0.98.

ATGGAGAAAT showed a switch fluorescence ratio of 1.05.

For TATTCCCCGG, the switch fluorescence ratio was 1.62.

For AGCAATTTAA, the switch fluorescence ratio was 1.06.

For GGTTCGAATA, the switch fluorescence ratio was 0.993.

For TCCGGGAGCG, the switch fluorescence ratio was 1.28.

For TTAGTCATAA, the switch fluorescence ratio was 1.01.

Work on ACTCAGGC yielded a switch fluorescence ratio of 1.08.

AGGACTATAA gave a switch fluorescence ratio of 1.03.

AGCTGCCTT showed a switch fluorescence ratio of 1.07.

ATATCCTCAT showed a switch fluorescence ratio of 0.997.

For TACGGCCAGT, the switch fluorescence ratio was 0.996.

Sequence CACCCAAGTG has a switch fluorescence ratio of 2.32.

In the case of GAGTGGCTTG, the switch fluorescence ratio is reported as 0.98.

TGTGAATGAC was tested, and the switch fluorescence ratio was 1.

In the case of ATGGTGAGCA, the switch fluorescence ratio is reported as 0.962.

Work on ATGTAAAGAG yielded a switch fluorescence ratio of 0.948.

For ATTTTCACGT, the switch fluorescence ratio was 1.02.

CACCCTAATT gave a switch fluorescence ratio of 1.28.

For TGCAGCTGTT, the switch fluorescence ratio was 0.989.

CGTATACGAC gave a switch fluorescence ratio of 1.15.

With CTACTCATTA the switch fluorescence ratio was 1.04.

Work on ATACACGGTG yielded a switch fluorescence ratio of 1.05.

CATAGGCTGA showed a switch fluorescence ratio of 0.99.

Work on TACTAATCGG yielded a switch fluorescence ratio of 1.03.

CATGACGTCG was tested, and the switch fluorescence ratio was 0.982.

For TTTGGTGTAC, the switch fluorescence ratio was 1.16.

In the case of ATGCACCTTC, the switch fluorescence ratio is reported as 1.13.

With TAAAAAAGCG the switch fluorescence ratio was 1.01.

GTACACGAA was tested, and the switch fluorescence ratio was 1.07.

CCTTCCGACG showed a switch fluorescence ratio of 1.11.

Sequence TCATTGGAA has a switch fluorescence ratio of 0.998.

GACACACG was tested, and the switch fluorescence ratio was 1.14.

Work on CCGCGGCATG yielded a switch fluorescence ratio of 2.64.

Work on AGTGTTCAAC yielded a switch fluorescence ratio of 0.965.

In the case of TTCGGGATGT, the switch fluorescence ratio is reported as 1.01.

GGTAAAGGAA was tested, and the switch fluorescence ratio was 0.979.

In the case of GTATGGAGAT, the switch fluorescence ratio is reported as 1.01.

For TGACCAATCC, the switch fluorescence ratio was 1.51.

Work on TGGACGCCCT yielded a switch fluorescence ratio of 1.78.

For AGAAAAACTT, the switch fluorescence ratio was 0.986.

TTGTTTCCGC gave a switch fluorescence ratio of 3.58.

For TCGGAACCCC, the switch fluorescence ratio was 1.02.

With TGTGGCGGGT the switch fluorescence ratio was 0.986.

With CGTTGTGTA the switch fluorescence ratio was 0.971.

Sequence TGAGAAAACA has a switch fluorescence ratio of 0.98.

TCAGCCCACA showed a switch fluorescence ratio of 1.04.

Sequence CGGGGCATAA has a switch fluorescence ratio of 1.1.

With TTATGGTATG the switch fluorescence ratio was 0.999.

GTGGTTGTC gave a switch fluorescence ratio of 1.

AAGAACTCTC gave a switch fluorescence ratio of 1.03.

TCTGCTTGCT showed a switch fluorescence ratio of 1.03.

Sequence TTTAGTTG has a switch fluorescence ratio of 0.978.

With CTGTTACTGG the switch fluorescence ratio was 0.981.

AACAACTTAT showed a switch fluorescence ratio of 0.99.

For TGATCCGATT, the switch fluorescence ratio was 1.02.

With CGCCCTGGGT the switch fluorescence ratio was 1.35.

GAATTGGCAG was tested, and the switch fluorescence ratio was 1.02.

Work on GTTCAAATTG yielded a switch fluorescence ratio of 1.02.

TATGTAGTTG was tested, and the switch fluorescence ratio was 1.03.

Sequence GGTTGTTCGA has a switch fluorescence ratio of 1.01.

With ACTTGTGCCA the switch fluorescence ratio was 0.965.

Sequence AATCCGGGG has a switch fluorescence ratio of 1.03.

ACGCATGAAG was tested, and the switch fluorescence ratio was 1.01.

Sequence TCGAGAGCCG has a switch fluorescence ratio of 0.998.

CGAAACTTGT showed a switch fluorescence ratio of 0.978.

GTTTTGCGTA gave a switch fluorescence ratio of 0.963.

Sequence AACGCTTTTT has a switch fluorescence ratio of 0.984.

Work on CACTGGGCTA yielded a switch fluorescence ratio of 0.952.

Sequence CTATGTCTTG has a switch fluorescence ratio of 0.976.

For ATTTCGGCT, the switch fluorescence ratio was 1.

Work on TGGAGTCTGC yielded a switch fluorescence ratio of 1.13.

Work on CACTTGATGG yielded a switch fluorescence ratio of 1.01.

Work on GCACAGCGCG yielded a switch fluorescence ratio of 0.979.

Sequence GTAAAAGGAG has a switch fluorescence ratio of 1.02.

In the case of CGATGAGGCT, the switch fluorescence ratio is reported as 1.02.

With TTTGCCCTG the switch fluorescence ratio was 1.03.

Sequence AGAGTTGTAT has a switch fluorescence ratio of 0.976.

AACCAAGTGC gave a switch fluorescence ratio of 1.1.

Work on GCATGATACC yielded a switch fluorescence ratio of 1.1.

Work on GGTAAGTGGG yielded a switch fluorescence ratio of 0.981.

With AATATGCATT the switch fluorescence ratio was 1.01.

With TCCCCCCCCC the switch fluorescence ratio was 1.92.

ATAGATGGGC gave a switch fluorescence ratio of 0.989.

GAATATAAAT was tested, and the switch fluorescence ratio was 1.01.

With CGGATGGGCA the switch fluorescence ratio was 1.

Sequence GGTTTGTGAA has a switch fluorescence ratio of 0.981.

Work on GCGGGCTCGT yielded a switch fluorescence ratio of 1.09.

TATCTAAAAG showed a switch fluorescence ratio of 1.03.

ATAAGGCCGG showed a switch fluorescence ratio of 1.05.

In the case of TACTCAGGAC, the switch fluorescence ratio is reported as 1.06.

Work on TGTTGGGG yielded a switch fluorescence ratio of 1.02.

For TCCCGCTATT, the switch fluorescence ratio was 2.6.

In the case of GCTAACACCG, the switch fluorescence ratio is reported as 1.09.

TCGGGGCTGC showed a switch fluorescence ratio of 0.967.

Work on GGGCTACATG yielded a switch fluorescence ratio of 1.03.

With TACACAGCCT the switch fluorescence ratio was 1.08.

In the case of ACCATGAGAC, the switch fluorescence ratio is reported as 1.03.

CTGCCCCTTG was tested, and the switch fluorescence ratio was 1.06.

For TCTCCAATCG, the switch fluorescence ratio was 1.14.

Sequence CTTATGTCAA has a switch fluorescence ratio of 1.06.

For TCTGGCCTCA, the switch fluorescence ratio was 1.05.

Work on CTTGTGTATT yielded a switch fluorescence ratio of 0.966.

For TTCGTTCTAA, the switch fluorescence ratio was 0.973.

For GAGCGGAATG, the switch fluorescence ratio was 1.06.

AATGGAAATG showed a switch fluorescence ratio of 1.

With TTAGTGTAGG the switch fluorescence ratio was 1.17.

TGATTAAAGC showed a switch fluorescence ratio of 1.01.

Sequence CGGTAGTACC has a switch fluorescence ratio of 1.02.

ATAGGTTCGA showed a switch fluorescence ratio of 0.992.

In the case of GGAATGTTCG, the switch fluorescence ratio is reported as 0.919.

For TATCGTGGG, the switch fluorescence ratio was 1.01.

For ATGGCGCGTA, the switch fluorescence ratio was 0.915.

Work on TCATGTAATA yielded a switch fluorescence ratio of 1.04.

In the case of AGAAACCAAA, the switch fluorescence ratio is reported as 1.04.

For ACAGTAAGTA, the switch fluorescence ratio was 1.03.

With GCGCGTGTCA the switch fluorescence ratio was 1.07.

With CGGCAGGAAT the switch fluorescence ratio was 0.969.

With ATTCGCGAGC the switch fluorescence ratio was 1.13.

GAAGTGGACT gave a switch fluorescence ratio of 0.989.

TAAGTGTATA gave a switch fluorescence ratio of 1.01.

ATCCGCGCCC showed a switch fluorescence ratio of 3.29.

Work on TATTCAGGAG yielded a switch fluorescence ratio of 1.02.

With ACGGGGTTCA the switch fluorescence ratio was 0.972.

Sequence CTCAGCAAG has a switch fluorescence ratio of 3.12.

CAGCCCAGCC gave a switch fluorescence ratio of 1.03.

Work on AAACAGGGCA yielded a switch fluorescence ratio of 1.02.

Work on TGTCGATCTC yielded a switch fluorescence ratio of 0.989.

ATCGAAAGCT gave a switch fluorescence ratio of 1.22.

TTGGTTAGAG gave a switch fluorescence ratio of 1.02.

Sequence GGCCCAAGCT has a switch fluorescence ratio of 0.988.

In the case of TGGTTGAGCG, the switch fluorescence ratio is reported as 0.959.

GACTCGCAGG was tested, and the switch fluorescence ratio was 1.06.

For CCATAGGCGT, the switch fluorescence ratio was 1.02.

TTGGCCTCAT gave a switch fluorescence ratio of 0.968.

Work on TCGCTGTAGT yielded a switch fluorescence ratio of 1.05.
